Source: PubChem BioAssay AID1347165 (National Center for Advancing Translational Sciences (NCATS), 2019)
About 5,700 (2.6%) of roughly 220,000 compounds were called active. Inconclusive results, whose numbers are uncertain, are shown with a selection of clear calls. The call rests on the fitted dose curve; in most records, active means well fitted inhibition curve with a large enough effect; inconclusive means small, poorly fitted or top-dose-only effect; inactive means no such curve, though single readings can be large or run the other way. Where the call is inconclusive, the potency comes from a doubtful curve fit.

Biological target: Lysine-specific demethylase 5B (Homo sapiens) (UniProt Q9UGL1)
Sequence of UniProt Q9UGL1 (Q9UGL1 whole entry, looked up): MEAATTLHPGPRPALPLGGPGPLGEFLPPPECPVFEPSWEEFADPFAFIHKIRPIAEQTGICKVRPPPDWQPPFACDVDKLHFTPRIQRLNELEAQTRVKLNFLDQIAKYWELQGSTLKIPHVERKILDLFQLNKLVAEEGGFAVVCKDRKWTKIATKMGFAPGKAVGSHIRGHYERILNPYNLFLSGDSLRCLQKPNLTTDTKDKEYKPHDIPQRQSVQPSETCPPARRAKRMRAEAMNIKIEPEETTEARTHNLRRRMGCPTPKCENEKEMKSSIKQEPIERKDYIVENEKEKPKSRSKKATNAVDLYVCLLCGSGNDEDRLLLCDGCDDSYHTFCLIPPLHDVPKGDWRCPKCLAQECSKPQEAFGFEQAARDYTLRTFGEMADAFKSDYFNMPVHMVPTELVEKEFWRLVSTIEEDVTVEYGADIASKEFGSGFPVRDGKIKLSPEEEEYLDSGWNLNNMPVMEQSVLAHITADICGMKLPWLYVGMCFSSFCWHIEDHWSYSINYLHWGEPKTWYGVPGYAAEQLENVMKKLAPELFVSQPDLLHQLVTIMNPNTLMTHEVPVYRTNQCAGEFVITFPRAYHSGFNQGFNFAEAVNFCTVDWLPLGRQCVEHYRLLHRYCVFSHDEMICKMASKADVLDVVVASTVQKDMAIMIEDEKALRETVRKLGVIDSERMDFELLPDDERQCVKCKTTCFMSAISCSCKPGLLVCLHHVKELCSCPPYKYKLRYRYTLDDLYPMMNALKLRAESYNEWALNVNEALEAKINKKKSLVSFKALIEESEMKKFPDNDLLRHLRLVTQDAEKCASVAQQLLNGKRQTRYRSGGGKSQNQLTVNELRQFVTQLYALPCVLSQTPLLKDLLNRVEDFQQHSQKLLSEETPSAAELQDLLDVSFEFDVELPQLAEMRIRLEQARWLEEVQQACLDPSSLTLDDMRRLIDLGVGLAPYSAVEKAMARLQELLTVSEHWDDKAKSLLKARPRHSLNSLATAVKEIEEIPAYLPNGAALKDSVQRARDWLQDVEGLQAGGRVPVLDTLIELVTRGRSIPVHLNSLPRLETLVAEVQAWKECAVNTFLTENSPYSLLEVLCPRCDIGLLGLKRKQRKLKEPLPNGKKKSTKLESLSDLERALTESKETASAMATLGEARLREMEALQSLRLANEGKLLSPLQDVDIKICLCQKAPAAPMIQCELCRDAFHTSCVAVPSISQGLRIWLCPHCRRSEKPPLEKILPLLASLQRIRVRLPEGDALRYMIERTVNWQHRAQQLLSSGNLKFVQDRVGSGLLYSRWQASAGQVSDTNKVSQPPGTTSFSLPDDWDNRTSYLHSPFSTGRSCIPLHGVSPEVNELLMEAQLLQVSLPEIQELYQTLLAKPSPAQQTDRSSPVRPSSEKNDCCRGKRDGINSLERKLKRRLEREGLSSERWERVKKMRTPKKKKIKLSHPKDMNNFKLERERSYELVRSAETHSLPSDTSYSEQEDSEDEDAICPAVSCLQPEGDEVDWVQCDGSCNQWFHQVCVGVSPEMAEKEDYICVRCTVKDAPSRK
Assay: Primary screen for KDM5B Histone Demethylases FDH-coupled qHTS; further: nearly all actives have a fitted effect of over 70% in size; on activity change, negative = inhibition: 0% is about no effect
Settings: FDH-coupled NADH fluorescence (FDH is formaldehyde dehydrogenase); activity change, negative = inhibition: at 57.7 µM (top of the series) unless noted
Method in brief: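 Compound dilutions met 200 nM (final) KDM5BΔAP for 10 min at room temperature before substrate addition. The substrate mix held 12.5 µM H3K4me3 with cofactors 25 µM α-ketoglutarate and 50 µM Fe²⁺. NADH signal gain over 30 min defined activity.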
Potency means the concentration at half of the fitted maximal effect; tags describe the fitted curve by direction and shape.

Row | Compound | Potency | activity change, negative = inhibition
1 | Cc1cnc2c(C(=O)NCc3cccnc3Oc3ccccc3)cnn2c1 | inconclusive: 31.6 µM [inhibitor, partial curve, poor fit] | –
2 | CCOC(=O)CN1CCN(C(=O)CCc2cc3cc(OC)ccc3[nH]c2=O)CC1 | active: 31.6 µM | –
3 | COc1cc(Nc2nc3ccc(Cl)cc3n3cnnc23)cc(OC)c1OC | inconclusive: 39.8 µM [inhibitor, single point] | –
4 | CC1=C[C@@H](CN2CCN(CCO)CC2)[C@H](C(C)C)C[C@H]1Cc1nnc(-c2ccc(N(C)C)cc2)o1 | inconclusive: 28.2 µM [inhibitor, single point] | –
5 | CCC(=O)Nc1ccc2nc(SCCOc3ccc(C)cc3)sc2c1 | – | inconclusive: -30.7% [inhibitor]
6 | O=C(c1ccc2nc(-c3ccccc3)c(-c3ccccc3)nc2c1)N1CCCCC1 | inconclusive: 28.2 µM [inhibitor, partial curve, poor fit] | –
7 | COc1cc(CN2CCN(Cc3ccc(-n4cccn4)cc3C)CC2CCO)cc(OC)c1 (configuration not stated) | inconclusive: 28.2 µM [inhibitor, partial curve, poor fit] | –
8 | CCOC(=O)c1cnc(Nc2ccc(F)cc2F)c2ccccc12 | inconclusive: 35.5 µM [inhibitor, partial curve, poor fit] | –
9 | CN(Cc1cc(-c2ccccc2)n[nH]1)c1cc(C2CC(N)C2)ncn1 (configuration not stated) | inactive | –
10 | Cc1ncsc1CN1CC[C@H]2C(=O)NCCCCCCN(Cc3ccncc3)[C@@H]2C1 | inconclusive: 28.2 µM [inhibitor, single point] | –
11 | O=S(=O)(c1cccc(C(F)(F)F)c1)N1CCC(n2cnnc2C2CC2)CC1 | inactive | –
12 | O=C(O)c1cccc2[nH]ccc12 | inconclusive: 28.2 µM [inhibitor, partial curve, poor fit] | –
13 | COc1ccc2nc3n(c2c1)[C@@H](CNC(=O)c1ccc(C#N)cc1)COC3 | inactive | –
14 | COc1ccc2nc([C@H]3CCN(Cc4cccc(OC(F)(F)F)c4)C3)[nH]c2c1 | inconclusive: 35.5 µM [inhibitor, partial curve] | –
15 | CCNc1ncc(CN2CCC(N)(C(=O)O)C2)cn1 (configuration not stated) | inconclusive: 22.4 µM [inhibitor, partial curve, poor fit] | –
16 | CC(=O)c1cccc(OCc2cccc(C(N)=O)c2)c1 | inactive | –
17 | COc1ccc(NC(=O)CSc2cc(-c3ccccc3)nc(C)n2)cc1 | inconclusive: 4.47 µM [inhibitor, partial curve, poor fit] | –
18 | COCCN1C(=O)[C@@H]2C[C@@H](CN2Cc2ccccn2)Oc2ccccc21 | inconclusive: 31.6 µM [inhibitor, single point] | –
19 | O=C(Nc1ccc2c(c1)OCCO2)N1CCC2(CC1)CC(N1CCCC1)CCO2 (configuration not stated) | inconclusive: 11.2 µM [inhibitor, partial curve] | –
20 | Cc1sc2nc(CSCC(=O)Nc3ccc(C(F)(F)F)cc3)[nH]c(=O)c2c1C | inconclusive: 25.1 µM [inhibitor, partial curve, poor fit] | –
21 | COCc1ncc(C)n1C1CCCNC1 (configuration not stated) | inconclusive: 31.6 µM [inhibitor, partial curve, poor fit] | –

Row | Compound | Potency | activity change, negative = inhibition
22 | COc1ccc2c(COC(=O)c3ccc(F)cc3)cc(=O)oc2c1 | inconclusive: 11.2 µM [inhibitor, partial curve, poor fit] | –
23 | CCN(Cc1ccccc1)C(=O)c1cc2c(s1)-c1c(C)cccc1OC2 | inconclusive: 35.5 µM [inhibitor, partial curve, poor fit] | –
24 | O=C1N(CC2CCC2)CCCC12CCN(S(=O)(=O)N1CCOCC1)C2 (configuration not stated) | inactive | –
25 | COCC1CN(C2CCC2)CC12CCN(C(=O)CCn1cc(C)cn1)CC2 (configuration not stated) | inconclusive: 17.8 µM [inhibitor, partial curve, poor fit] | –
26 | COCCn1c(SCc2nc(-c3ccc(C)cc3)no2)nc2ccsc2c1=O | inactive | –
27 | COc1ccccc1NC(=O)CSc1oc(-c2cccs2)nc1S(=O)(=O)c1ccccc1 | inconclusive: 31.6 µM [inhibitor, single point] | –
28 | O=C(NC1CCCCC1)N1CCCCCC1c1nc(-c2cccnc2)no1 (configuration not stated) | inactive | –
29 | C=CCNc1ccc(C(F)(F)F)cn1 | inactive | –
30 | c1ccc([C@@H]2CNC[C@H]2COc2cccnc2)nc1 | inactive | –
31 | CC(Oc1ccccc1Cl)C(=O)N1CCN(CCc2ccccn2)CC1 (configuration not stated) | inactive | –
32 | COc1cc(NC(=O)c2cc3c(=O)n(Cc4cccs4)ccc3nc2C)cc(OC)c1OC | inconclusive: 39.8 µM [inhibitor, single point] | –
33 | COc1ccc(OC)c2c1C(=O)C(Cl)=C(Cl)C2=O | inconclusive: 3.55 µM [inhibitor, full curve, poor fit] | –
34 | Cc1cc2c(c(=O)n1Cc1ccccn1)C(c1ccco1)C(C#N)=C(N)O2 (configuration not stated) | inconclusive: 39.8 µM [inhibitor, single point] | –
35 | Cn1c(=O)c2sccc2n(CC(=O)NCC2CCCO2)c1=O (configuration not stated) | inactive | –
36 | CN1CCN(CCNC(=O)CCn2ccc3cc(S(=O)(=O)N4CCCCC4)ccc32)CC1 | inactive | –
37 | CN1C(=O)[C@@H]2C[C@@H](O)CN2C2(CN(Cc3cnc4ccccc4c3)C2)C1=O | inconclusive: 44.7 µM [inhibitor, partial curve, poor fit] | –
38 | COc1ccc(CC(/C=C/c2ccc(F)cc2)c2ccccc2)cc1 (configuration not stated) | inconclusive: 31.6 µM [inhibitor, single point] | –
39 | c1ccc(-c2nnc3ccc(N4CCc5ccccc5C4)nn23)nc1 | inconclusive: 31.6 µM [inhibitor, single point] | –
40 | COc1ccc(-c2nc3ccccc3o2)cc1NC(=O)COc1ccc(C(C)(C)C)cc1 | inconclusive: 25.1 µM [inhibitor, partial curve, poor fit] | –
41 | CCc1noc(-c2cccn3c(CNC(=O)Cc4ccccc4OC)nnc23)n1 | inconclusive: 28.2 µM [inhibitor, partial curve] | –
42 | O=[N+]([O-])c1ccc(C(c2sc3nc(-c4ccco4)nn3c2O)N2CCN(c3cccc(Cl)c3)CC2)cc1 (configuration not stated) | inconclusive: 31.6 µM [inhibitor, single point] | –
